In all, about 50,000 compounds went through this assay and about 800 (1.6%) showed an effect of 50% or more. The list shows a part of the results.
Biological target: Bcl-2-like protein 10 (Homo sapiens) (UniProt Q9HD36)
Experiment: Phenotype converters, Bcl-B/TR3 peptide binding displacement, primary biochemical FP (AID 1240);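 also: 0% = Bcl-B with tracer peptide and DMSO and 100% = tracer peptide lacking Bcl-B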
Settings: GST-Bcl-B / FITC-TR3 peptide fluorescence polarization; stronger effect = higher value; compound at 3.75 mg/L

UniProt Q9HD36, sequence (Q9HD36 whole entry, looked up): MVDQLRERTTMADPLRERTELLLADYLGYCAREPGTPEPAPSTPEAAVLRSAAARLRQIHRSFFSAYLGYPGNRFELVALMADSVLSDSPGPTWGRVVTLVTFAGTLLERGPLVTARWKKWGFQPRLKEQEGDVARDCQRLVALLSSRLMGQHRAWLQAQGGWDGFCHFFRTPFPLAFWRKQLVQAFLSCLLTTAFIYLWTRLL

Structure (SMILES)	displacement [%]
CC1CN(c2ccc(Cl)cc2[N+](=O)[O-])CCN1S(C)(=O)=O (stereo unspecified)	-11
Cc1cc(C)c(NS(=O)(=O)c2ccc(Cl)c([N+](=O)[O-])c2)c(C)c1	2.5
CC(C)(C)c1cc(CCC(=O)NNC(=O)c2ccccc2)cc(C(C)(C)C)c1O	-2.2
Cc1cc(Cl)ccc1OCC(=O)Nc1nc2ccc(Cl)cc2s1	-7.8
Cc1ccc(NC(=O)CN(c2cccc(C(F)(F)F)c2)S(C)(=O)=O)c(C)c1	-2.3
CCN(CC)c1ccc(C2NC(=O)NC(C)=C2C(=O)OCc2ccc(OC)cc2)cc1 (stereo unspecified)	3.9
CCCCOCC(O)CCc1n[nH]c(=S)n1-c1ccccc1 (stereo unspecified)	3.4
CCCCN(CCCC)S(=O)(=O)c1ccccc1[N+](=O)[O-]	-4.1
Cc1ccc(NC(=O)/C=C/c2cccc(C(F)(F)F)c2)cc1	-0.3
Cc1ccc(/C(O)=C2/C(=O)C(=O)N(CCCn3ccnc3)C2c2ccc(Cl)cc2)cc1 (stereo unspecified)	2.3
O=C1N(c2ccccc2)C2CS(=O)(=O)CC2N1c1ccc(Cl)cc1 (stereo unspecified)	4.6
Cc1cc[n+](CC(=O)N(c2ccccc2)C(C)C)cc1	-9.9
COc1ccc(OCCCOc2ccc(Cl)c(C)c2)cc1	15.4
CCOc1ccc2c(c1)C(=C1SC(C(=O)OC)=C(C(=O)OC)S1)C(=S)C(C)(C)N2C(=O)c1cccc(OC)c1	-12.8
O=C(Nc1ccc(F)c(Cl)c1)c1nn2c(c1Cl)NC(c1ccccc1)CC2C(F)(F)F (stereo unspecified)	5.1
O=C(/C=C/c1ccc(F)cc1)N1CCC(CN2C(=O)c3cccc4cccc(c34)C2=O)CC1	7.1
O=C(O)CN1C(=O)/C(=C\c2cc(Cc3ccccc3)cc([N+](=O)[O-])c2O)SC1=S	-9.8
COc1ccc(/C=C2/SC(=Nc3ccccc3)NC2=O)cc1O	-4.5
CCOC(=O)C(C#N)C(=S)Nc1ccccc1 (stereo unspecified)	2.7
CCN(CC)CCCCCCOc1ccccc1OC	11
COC(=O)NC(NC(=O)OC)c1ccc(F)cc1	-1.3
CS(=O)(=O)N(Cc1ccc(C(=O)Nc2ccc(Oc3ccccc3)cc2)cc1)c1ccccc1	7.7

Structure (SMILES)	displacement [%]
COc1cc(-c2noc(-c3ccc(C)cc3)n2)cc(OC)c1OC	10.8
Cc1cc(C)cc(N(CC(=O)NCCSc2nc3ccccc3s2)S(=O)(=O)c2ccccc2)c1	15.1
CC(C)c1ccc(/C=C(\NC(=O)c2ccccc2)C(=O)NCc2ccco2)cc1	11.2
CCOC(=O)c1c(NC(=O)CN2C(=O)c3ccccc3C2=O)sc2c1CCCC2	-1.2
COc1ccc(C(=O)Nc2cccc(C)c2C)cc1	-5.5
O=C(COc1ccc([N+](=O)[O-])cc1)Nc1ccc(Cl)cn1	-2.9
COc1ccccc1-c1coc2cc(OC(=O)c3ccc(Cl)cc3Cl)ccc2c1=O	63.9
O=C(O)C1C2CCC(O2)C1C(=O)N1CCN(C(c2ccccc2)c2ccccc2)CC1 (stereo unspecified)	9
CCOc1cccc(C(=O)Nc2ccc(C)cc2[N+](=O)[O-])c1	8.1
C/C=C/C=C/C(=O)Nc1cccc(C(=O)/C=C/c2ccccc2)c1	14.3
Cc1cccc(C)c1NS(=O)(=O)c1cccc2cccnc12	3.3
O=c1[nH]cnc2c1C1(CCCC1)Cc1ccccc1-2	-6.4
O=C(Nc1nc(-c2ccc(Cl)cc2)cs1)c1ccc(S(=O)(=O)N2CCOCC2)cc1	-6.7
Cc1ccc(N(CC(=O)Nc2ccccc2F)S(=O)(=O)c2ccccc2)c(C)c1	4.5
O=C1c2cccc([N+](=O)[O-])c2C(=O)N1c1ccccn1	1.8
COCc1cc(=O)n2[nH]c(-c3ccc(C)cc3)cc2n1	5.1
O=c1c(C=NCc2cccs2)c(C(F)(F)F)[nH]n1-c1nc2ccccc2s1	-13.8
CCOc1ccc(CNC23CN4CN(CN(C4)C2)C3)cc1	-5.3
O=C(O)c1ccccc1NC(=O)c1ccccc1-c1ccccc1C(=O)O	-4.5
COc1cc(C(c2c(C)[nH][nH]c2=O)c2c(C)[nH][nH]c2=O)ccc1OC(=O)c1ccccc1Cl	-21
COc1cc([N+](=O)[O-])ccc1NC(=O)c1cccc(I)c1	-9.7
COc1ccc(N2C(=O)/C(=C\c3cccc(C(F)(F)F)c3)SC2=S)cc1	14.9

Structure (SMILES)	displacement [%]
Cc1nc(NC(=S)Nc2ccccc2)sc1C	-16.7
Cc1cccn2c(=O)c(/C=C3\SC(=S)N(C(C)c4ccccc4)C3=O)c(NCCCn3ccnc3)nc12 (stereo unspecified)	8.8
CCOc1ccccc1NC(=O)NS(=O)(=O)c1ccc(C)cc1	11.9
CSc1ccccc1NC(=O)c1nn2c(c1Cl)NC(c1ccco1)CC2C(F)(F)F (stereo unspecified)	4.8
COC(=O)C1=C(C)NC(=O)CC1c1cc([N+](=O)[O-])ccc1Cl (stereo unspecified)	-3
Cc1ccc(N=Cc2ccc([N+](=O)[O-])s2)c(C)c1	1.8
O=C(N/N=C/c1ccccc1O)c1n[nH]c2c1CCC2	-21.4
COc1ccc(N(CC(=O)Nc2ccc(C)cc2C)S(C)(=O)=O)cc1	2.2
Cc1cc(Cl)ccc1OCC(=O)NNC(=O)Cc1ccc(Cl)cc1	-7.4
COc1ccc(/C(O)=C2/C(=O)C(=O)N(CCCCCC(=O)O)C2c2ccccc2[N+](=O)[O-])cc1 (stereo unspecified)	-0.2
CN(C)CCN1C(=O)C(=O)/C(=C(/O)c2ccccc2)C1c1ccccc1F (stereo unspecified)	-14.8
COc1ccc(OC)c(N=Cc2c(O)n(-c3ccc(F)cc3)c(=O)[nH]c2=O)c1	-17.7
O=C1N(c2ccccc2)C(c2ccc(Cl)cc2)N2CCCN12 (stereo unspecified)	-9.6
C=CCN1C(=O)C(Cc2ccccc2)S/C1=N/N=C/c1ccccc1 (stereo unspecified)	3
COc1ccc(Cl)cc1NC(=O)CN(c1ccccc1)S(=O)(=O)c1ccccc1[N+](=O)[O-]	15.4
O=C(/C=C/c1ccc(Cl)cc1)Nc1ccc(-c2nc3ccccc3s2)c(O)c1	25.2
COC(=O)c1ccc(N2C(=O)c3cccc([N+](=O)[O-])c3C2=O)cc1	-0.7
Cc1cccc(/C=N/N2CCN(Cc3cccc4ccccc34)CC2)c1	7.6
O=C1c2ccccc2-c2onc3c(Br)cc(O)c1c23	11.6
CC(NC(=O)C1CC(=O)N(c2ccc(Br)cc2)C1)c1ccccc1 (stereo unspecified)	4.4
Cc1ccc(CN2CCN(/N=C\c3ccc(O)cc3O)CC2)cc1	-1
COC(=O)c1c(NC(=O)c2ccccc2Cl)sc2c1CCCCCC2	-8.4
